Some of the results follow. Values were computed here from the reads of four pooled replicates and scatter widely.
Target: T1, Pho4 (S. cerevisiae) (UniProt P07270)
T1 sequence: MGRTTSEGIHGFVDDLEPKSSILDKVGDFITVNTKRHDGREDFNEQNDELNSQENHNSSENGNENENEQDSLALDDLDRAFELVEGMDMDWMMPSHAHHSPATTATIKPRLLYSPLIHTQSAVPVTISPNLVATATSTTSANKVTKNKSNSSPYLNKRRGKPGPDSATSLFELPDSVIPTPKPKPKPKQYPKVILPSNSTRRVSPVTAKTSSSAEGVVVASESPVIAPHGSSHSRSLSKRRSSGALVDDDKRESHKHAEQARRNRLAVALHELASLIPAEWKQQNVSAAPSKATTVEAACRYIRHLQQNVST
Assay: relative binding free energy (BET-seq); higher = weaker binding
Details: reference: library average

Row | Sequence | relative binding free energy [kcal/mol]
1 | GGTAGCACGTGCAGGG | -0.05
2 | TTTTTCACGTGGTAAG | 0.24
3 | AGATTCACGTGTAATA | 0.26
4 | ATGTGCACGTGTGTGA | 0.01
5 | TGAGGCACGTGAGGCA | 0
6 | GGGGCCACGTGCATGT | -0.23
7 | ATAAGCACGTGGTTAA | -0.22
8 | AAGTGCACGTGGGTTT | -0.2
9 | GGGCGCACGTGACTGG | 0
10 | GTAAGCACGTGTCTGG | -0.12
11 | ATGTTCACGTGGGTCT | -0.04
12 | TAAGGCACGTGCAGTG | -0.15
13 | GGGGGCACGTGGTATG | -0.27
14 | AGAGTCACGTGGGCCT | 0.06
15 | GTTCGCACGTGGTAGT | -0.01
16 | ATAGGCACGTGCGGAT | -0.2
17 | GGTAGCACGTGTACTG | -0.05
18 | CGGATCACGTGGGAAG | 0.13
19 | ATTTGCACGTGGGGGG | 0
20 | GTGCGCACGTGTAATT | 0.05
21 | GAGATCACGTGGGTGC | 0.29
22 | CTATGCACGTGGTGAG | -0.17
23 | GTTGTCACGTGTTCAC | 0.3
24 | CTATGCACGTGGTCGG | -0.2
25 | TGCCTCACGTGTTTGG | 0.14

Row | Sequence | relative binding free energy [kcal/mol]
26 | TTCTGCACGTGTTAGC | 0.07
27 | TCTAGCACGTGTGGGC | 0
28 | AGTTGCACGTGGGTGG | -0.1
29 | CGGGTCACGTGTAAGC | 0.29
30 | ACATTCACGTGTGTGA | 0.25
31 | TGGTGCACGTGTATCG | 0.13
32 | TGGTTCACGTGAGGCT | 0.32
33 | ACAGTCACGTGTGTGA | 0.08
34 | GGGGACACGTGGTAGC | -0.09
35 | CGTTGCACGTGATGAG | -0.01
36 | GGGGGCACGTGGGCGT | -0.16
37 | ATATGCACGTGGGCTG | -0.2
38 | ACTTCCACGTGGTGTT | 0.15
39 | AGGCGCACGTGCATGG | -0.15
40 | AGTCTCACGTGGAGTG | 0.2
41 | GTAAACACGTGGAGGG | 0
42 | TTCTGCACGTGCTGTT | -0.13
43 | TGTCGCACGTGATAGT | 0.08
44 | TTAGACACGTGAGGCG | 0.13
45 | ATTTGCACGTGTGTTA | 0.03
46 | TCTGACACGTGTGTGA | 0.05
47 | AGCTACACGTGGGTTG | -0.11
48 | TAGGACACGTGGAGTG | 0.09
49 | TGGGCCACGTGAGAGC | 0.33
50 | GAAGTCACGTGTGTAA | 0.3

Row | Sequence | relative binding free energy [kcal/mol]
51 | CATGGCACGTGGGGAG | -0.17
52 | ACGTTCACGTGGTGTA | 0.2
53 | AGTATCACGTGTTTAT | 0.22
54 | AGGCCCACGTGGTGGG | -0.14
55 | ACTTACACGTGGGGAT | 0.12
56 | ATCGGCACGTGAGGTA | 0
57 | GGGGCCACGTGTCGTT | -0.04
58 | AAATTCACGTGAAGTA | 0.4
59 | AGAAGCACGTGATTGT | 0.15
60 | TTGTTCACGTGGGGCA | 0.07
61 | ACGGTCACGTGGGGTC | -0.16
62 | GGTGACACGTGTTGTG | -0.03
63 | GGAATCACGTGATTAG | 0.29
64 | GACTTCACGTGAAGGT | 0.44
65 | GTATCCACGTGTAGGG | 0.01
66 | ATTAACACGTGAAGGG | 0.17
67 | GGCGGCACGTGTGTGC | -0.13
68 | TGGGTCACGTGCATTT | 0.18
69 | GAGTTCACGTGGGTGA | 0.27
70 | TGTATCACGTGTGGCT | 0.08
71 | TGGGTCACGTGGAAAA | 0.28
72 | ATTGTCACGTGGCGAA | -0.01
73 | TTTTACACGTGCATAT | 0.07
74 | TTCAGCACGTGTAAGA | 0.21
75 | GTAGGCACGTGTCGCG | -0.14

Row | Sequence | relative binding free energy [kcal/mol]
76 | GATGTCACGTGCGGGA | 0.25
77 | CTTATCACGTGGATGT | 0.02
78 | CTTTACACGTGTGGGT | 0.2
79 | ACTTTCACGTGGTATT | 0.2
80 | ATAGGCACGTGCGTAG | -0.14
81 | ATGTTCACGTGGCTTG | 0.22
82 | CGATGCACGTGTTTTT | -0.02
83 | GCGTACACGTGGGTTA | -0.01
84 | GATTACACGTGTTATA | 0.26
85 | TGTTGCACGTGCAGGT | -0.07
86 | TTGGGCACGTGGCGTT | -0.09
87 | GTATTCACGTGGGACG | 0.18
88 | TTAGGCACGTGCAGGG | -0.16
89 | GGTAACACGTGGGGGG | -0.05
90 | AGCTACACGTGGGTGT | -0.12
91 | TATTGCACGTGGACGT | -0.1
92 | TACGTCACGTGTTGCG | 0.06
93 | ATCTTCACGTGTTTAG | 0.24
94 | TTGTTCACGTGTCACG | 0.27
95 | GGGCTCACGTGGATAG | 0.31
96 | ATTGTCACGTGGCGAG | 0.06
97 | GGCTTCACGTGGTATG | 0.36
98 | TTGGTCACGTGCAAAG | 0.11
99 | ATCGGCACGTGTTGGG | -0.06
100 | GTTAGCACGTGGTTGC | -0.21

Row | Sequence | relative binding free energy [kcal/mol]
101 | TAGCTCACGTGAGTGT | 0.36
102 | ATATGCACGTGTGGTT | 0.1
103 | AGGGCCACGTGTGGGG | -0.14
104 | TATGTCACGTGCGCTT | -0.1
105 | AGAGGCACGTGATGAT | -0.03
106 | TGGGCCACGTGGTGGC | -0.02
107 | GAGGGCACGTGGGCTC | -0.18
108 | AGTATCACGTGGGCCG | -0.02
109 | GACAGCACGTGTTGTT | -0.02
110 | TTACTCACGTGTAATT | 0.18
111 | ATCGTCACGTGTCGGT | 0.1
112 | GTGCTCACGTGGGCAT | 0.13
113 | CTTTACACGTGTAGAT | 0.37
114 | AGTAACACGTGTGCGT | -0.06
115 | GAAGGCACGTGAAAGG | 0.35
116 | AGATGCACGTGTTTGT | -0.07
117 | GTGTGCACGTGCTGCA | 0.02
118 | ATTAACACGTGAGTCT | 0.23
119 | TATCACACGTGTATTT | 0.17
120 | TGCTTCACGTGTTGTG | 0.25
121 | TCGTACACGTGTCTTG | 0.15
122 | GTTAGCACGTGTCGGA | 0.18
123 | GGGTGCACGTGCAGCG | -0.14
124 | AGGTCCACGTGGGAGT | -0.09
125 | GTATTCACGTGGCGGA | 0.22

Row | Sequence | relative binding free energy [kcal/mol]
126 | CAGTGCACGTGTGTAG | -0.19
127 | ATGTACACGTGATGGG | 0.15
128 | AAGTGCACGTGGGTTG | -0.25
129 | CGTAACACGTGTTGGA | 0.09
130 | ATGGACACGTGGTCGG | -0.1
131 | TAGTTCACGTGTGAAC | 0.38
132 | TCAGTCACGTGGTGGT | 0.1
133 | AGTAGCACGTGGAGTT | -0.01
134 | CGTTACACGTGTTAGT | 0.14
135 | GGTTGCACGTGCTAGT | -0.01
136 | GGGCGCACGTGGAGGG | -0.11
137 | GTGCGCACGTGGCGTG | -0.16
138 | CTCGGCACGTGTTGGG | -0.05
139 | TTACGCACGTGTGTTT | -0.14
140 | TTAAGCACGTGTGGTG | -0.13
141 | TTTTTCACGTGTGGGT | 0.38
142 | TTCTACACGTGTGTTG | -0.03
143 | ATTTACACGTGGGTGG | 0.01
144 | GCGTTCACGTGGGGTA | 0.18
145 | GCGGTCACGTGTATGT | 0.08
146 | TAATGCACGTGGGTAG | -0.2

Source: the BET-seq Pho4 binding data (Le et al. 2018)
